In PubChem BioAssay AID1347044 (National Center for Advancing Translational Sciences (NCATS), 2019):
The list shows a part of the results. The main result of the screen is listed elsewhere. These columns were measured beside it and carry no call. Compounds called inactive in the main read-out are mostly missing here. Potencies come from curve fits of mixed quality, noted in brackets.

Assay: Natriuretic polypeptide receptor (hNpr1) antagonism - Confirmation; note: nearly all actives have a fitted effect of over 70% in size
Conditions: HEK293 hNpr1 cGMP GloSensor luminescence, ANP-stimulated; measured here: HEK-hNpr1 cytotoxicity, CellTiter-Glo
In short: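 HEK293 cells expressing hNpr1 and the pGS-40F GloSensor cGMP sensor, loaded with 2% GloSensor reagent for 2 h, then treated 30 min with compound at room temperature. Luciferase luminescence read before and 20 min after 0.1 nM hNppA stimulation.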
Tags give direction and shape of the fitted curve.

SMILES | CC50
Cc1ccc(C2Cn3nnc(C(=O)N4CCN(C(=O)c5cc(Cl)ccc5F)CC4)c3CO2)cc1 (centres undefined) | 21.7 µM [falling, partial curve]
CC(C)c1nc(-c2ccc(OC3CCN(C(=O)c4n[nH]c5ccccc45)C3)cc2)no1 (centres undefined) | 24.3 µM [falling, partial curve]
CC(C)c1ccc(C(=O)N2CCC(Cc3nc(-c4ccc(F)cc4)no3)CC2)cc1 | 1.72 µM [falling, full curve]
COc1cccc(-c2noc(CC3CCN(C(=O)c4ccc(C)cc4C)CC3)n2)c1 | 17.2 µM [falling, partial curve]
O=C(Nc1ccc(Cl)cc1)c1nc2c(o1)CCN(Cc1cccc(F)c1)CC2 | 22.2 µM [falling, partial curve]
O=C1c2c(nc(COc3ccc4c(c3)OCO4)n2Cc2ccccc2)NCCN1Cc1ccccc1F | 21.7 µM [falling, partial curve]
O=C(Nc1ccc(Cl)cc1)c1nc2c(o1)CCN(Cc1ccccc1)CC2 | 22.2 µM [falling, partial curve]
O=C1NC2(CCN(Cc3ccc(OC(F)(F)F)cc3)C2)OCc2ccccc21 (centres undefined) | 17.2 µM [falling, partial curve]
COc1ccc(C2Cn3nnc(C(=O)N4CCN(C(=O)c5ccc(F)cc5Cl)CC4)c3CO2)cc1 (centres undefined) | 24.3 µM [falling, partial curve]
COc1ccc(CN2C=C(C(=O)OCc3noc(-c4ccc(C)cc4)n3)C(C)=NS2(=O)=O)cc1 | 13.7 µM [falling, full curve]
Cc1ccccc1-c1cnc2[nH]cc(CC(=O)NCc3ccco3)c2c1 | 31.4 µM [falling, partial curve]
O=C(NCc1ccccc1)c1nc2c(o1)CCN(Cc1ccc(F)cc1F)CC2 | 35.3 µM [falling, partial curve]
O=C(Oc1ccccc1)N1CCC(Oc2cnc3c(ccn3-c3cncnc3)c2)CC1 | 35.3 µM [falling, partial curve]
Cc1ccc(NC(=O)CCC2CCN(S(=O)(=O)c3ccccc3C)CC2)cc1F | 24.3 µM [falling, single point]
COc1cccc(NC(=O)Cn2c(N(C)Cc3ccccc3)nc(C)cc2=O)c1 | 15.3 µM [falling, partial curve]
CCc1ccc(CNC(=O)C2CCN(c3cc(C(F)(F)F)ncn3)CC2)cc1 | 21.7 µM [falling, partial curve]
Cc1oc(C(O)c2ccccc2F)nc1C(=O)Nc1ccccc1C(N)=O (centres undefined) | 31.4 µM [falling, partial curve]
CCn1c2c(c(=O)n1-c1ccccc1)CCN(C(=O)c1ccc(Oc3ccccc3)cc1)C2 | 13.7 µM [falling, partial curve]
COc1ccc(-c2noc(CC3CCN(C(=O)c4cc(F)ccc4Cl)CC3)n2)cc1 | 15.3 µM [falling, partial curve]
Cc1nn(C)c2nc(N3CCC(C#N)(c4ccccc4)CC3)sc12 | 21.7 µM [falling, partial curve]

SMILES | CC50
COc1ccc(-c2noc(CC3CCN(C(=O)c4ccc(OC)cc4OC)CC3)n2)cc1 | 4.85 µM [falling, full curve]
COc1cccc(C(=O)N2CCN(c3cc(-c4ccc(Cl)cc4)[nH]n3)CC2)c1OC | 15.3 µM [falling, partial curve]
O=C(C1CC(=O)N(c2n[nH]c3ccccc23)C1)N1CCC(c2noc3cc(F)ccc23)CC1 (centres undefined) | 24.3 µM [falling, partial curve]
Cc1ccc2c(c1)nc1n2[C@@H](CNS(=O)(=O)Cc2ccccc2)COC1 | 31.4 µM [falling, partial curve]
COc1ccccc1-c1ncc(CNc2cc(C3CC(O)C3)ncn2)s1 (centres undefined) | 10.9 µM [falling, partial curve]
CCn1cc(CNC(=O)c2ccc(OC3CCN(S(=O)(=O)N(C)C)CC3)cc2)cn1 | 17.2 µM [falling, partial curve]
O=C(Nc1ccccc1)O[C@@H]1CO[C@H]2[C@@H]1OC[C@@H]2NC(=O)c1ccc2c(c1)OCO2 | 49.8 µM [falling, single point]
CCOC(=O)c1ccc(CNC(=O)N2CCC3(CC2)CN(c2ccccc2)C3=O)cc1 | 21.7 µM [falling, partial curve, poor fit]
COc1ccc(CC(=O)N2CCC(Cc3nc(-c4ccccc4)no3)CC2)cc1OC | 12.2 µM [falling, partial curve]
COc1ccc(CC(=O)N2CCC(Cc3nc(-c4ccccc4)no3)CC2)cc1Cl | 34.3 µM [falling, single point]
Cc1noc(-c2ccco2)c1C(=O)NCc1cccc2ccccc12 | 21.7 µM [falling, partial curve]
COc1cccc(CC(=O)N2CCN(C(=O)c3nnn4c3COC(c3ccc(Cl)cc3)C4)CC2)c1 (centres undefined) | 21.7 µM [falling, partial curve]
O=C(c1ccc(Cl)cc1)N1CCC(n2cc(-c3nc(-c4ccccc4)no3)nn2)CC1 | 24.3 µM [falling, partial curve]
COc1cc(OC)cc(C(=O)N2CCC(Cc3nc(-c4ccc(F)cc4)no3)CC2)c1 | 19.3 µM [falling, partial curve]
Cc1ccccc1C(=O)N1CCC(Cc2nc(-c3ccccc3)no2)CC1 | 17.2 µM [falling, partial curve]
COCc1noc(-c2ccc(N(C)CC3CC(=O)N(C(C)(C)C)C3)nc2)n1 (centres undefined) | 21.7 µM [falling, partial curve, poor fit]
COc1ccccc1Nc1ncc2c(n1)CN(C(=O)c1cccc(N(C)C)c1)CCN2 | 35.3 µM [falling, partial curve]
CC1=NS(=O)(=O)N(Cc2ccccc2)C=C1C(=O)OCc1noc(-c2ccc(C)c(C)c2)n1 | 17.2 µM [falling, partial curve]
O=C(Nc1ccc(Oc2ccccc2)cc1)c1cc2n(n1)CC(c1ccc(Cl)cc1)OC2 (centres undefined) | 3.43 µM [falling, full curve]
